# Test results: the supplement of paper PMC8728848
# Some of the results follow.
# B1: AFCNVH (Aspergillus fumigatus) (protein)
# chain: MSLRGFHTTCDTIVLKDKHILSSRCKRPDGTYSFSEIDLNDCLGNNNGKFVWGGESFVDSASQVNLALEGGEGRPMLHAQLNDWHGSVQSASVNLGECIQNEAGGLEYMHC
# Tests used:
# Experiment in all cases: glycan array binding signal (z-score within array); higher = stronger binding
# Settings in all cases: glycan notation: IUPAC condensed, linker removed
# [1] = target: Gal(b1-4)GlcNAc(b1-2)[Gal(b1-4)GlcNAc(b1-6)]Man(a1-6)[Gal(b1-4)GlcNAc(b1-2)Man(a1-3)]Man(b1-4)GlcNAc(b1-4)[Fuc(a1-6)]GlcNAc
# How it was run: (§1)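 Columns mapping to the same glycan were averaged after glycan names were converted to IUPAC-condensed notation. The data come from 3228 arrays in the Consortium for Functional Glycomics database, limited to those with an available protein sequence. Binding is reported as a within-array Z-score averaged across arrays of one protein sequence and across linkers.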
# [2] = target: Gal(b1-4)GlcNAc(b1-2)[Gal(b1-4)GlcNAc(b1-6)]Man(a1-6)[GlcNAc(b1-4)][Gal(b1-4)GlcNAc(b1-2)Man(a1-3)]Man(b1-4)GlcNAc(b1-4)GlcNAc
# How it was run: as §1
# [3] = target: Gal(b1-4)GlcNAc(b1-2)[Gal(b1-4)GlcNAc(b1-6)]Man(a1-6)[GlcNAc(b1-4)][Gal(b1-4)GlcNAc(b1-2)[Gal(b1-4)GlcNAc(b1-4)]Man(a1-3)]Man(b1-4)GlcNAc(b1-4)[Fuc(a1-6)]GlcNAc
# How it was run: as §1
# [4] = target: Gal(b1-4)GlcNAc(b1-3)Gal(b1-3)GalNAc
# How it was run: as §1
# [5] = target: Gal(b1-4)GlcNAc(b1-3)Gal(b1-3)GlcNAc
# How it was run: as §1
# [6] = target: Gal(b1-4)GlcNAc(b1-3)Gal(b1-4)Glc
# How it was run: as §1
# [7] = target: Gal(b1-4)GlcNAc(b1-3)Gal(b1-4)GlcNAc
# How it was run: as §1
# [8] = target: Gal(b1-4)GlcNAc(b1-3)Gal(b1-4)GlcNAc(b1-2)Man(a1-3)[Gal(b1-4)GlcNAc(b1-3)Gal(b1-4)GlcNAc(b1-2)Man(a1-6)]Man(b1-4)GlcNAc(b1-4)GlcNAc
# How it was run: as §1
# [9] = target: Gal(b1-4)GlcNAc(b1-3)Gal(b1-4)GlcNAc(b1-2)Man(a1-3)[Gal(b1-4)GlcNAc(b1-3)Gal(b1-4)GlcNAc(b1-2)Man(a1-6)]Man(b1-4)GlcNAc(b1-4)[Fuc(a1-6)]GlcNAc
# How it was run: as §1
# [10] = target: Gal(b1-4)GlcNAc(b1-3)Gal(b1-4)GlcNAc(b1-2)[Gal(b1-4)GlcNAc(b1-3)Gal(b1-4)GlcNAc(b1-6)]Man(a1-6)[Gal(b1-4)GlcNAc(b1-3)Gal(b1-4)GlcNAc(b1-2)Man(a1-3)]Man(b1-4)GlcNAc(b1-4)GlcNAc
# How it was run: as §1
# [11] = target: Gal(b1-4)GlcNAc(b1-3)Gal(b1-4)GlcNAc(b1-2)[Gal(b1-4)GlcNAc(b1-3)Gal(b1-4)GlcNAc(b1-6)]Man(a1-6)[Gal(b1-4)GlcNAc(b1-3)Gal(b1-4)GlcNAc(b1-2)Man(a1-3)]Man(b1-4)GlcNAc(b1-4)[Fuc(a1-6)]GlcNAc
# How it was run: as §1
# [12] = target: Gal(b1-4)GlcNAc(b1-3)Gal(b1-4)GlcNAc(b1-3)Gal(b1-4)GlcNAc
# How it was run: as §1
# [13] = target: Gal(b1-4)GlcNAc(b1-3)Gal(b1-4)GlcNAc(b1-3)Gal(b1-4)GlcNAc(b1-2)Man(a1-3)[Gal(b1-4)GlcNAc(b1-3)Gal(b1-4)GlcNAc(b1-3)Gal(b1-4)GlcNAc(b1-2)Man(a1-6)]Man(b1-4)GlcNAc(b1-4)GlcNAc
# How it was run: as §1
# [14] = target: Gal(b1-4)GlcNAc(b1-3)Gal(b1-4)GlcNAc(b1-3)Gal(b1-4)GlcNAc(b1-2)Man(a1-3)[Gal(b1-4)GlcNAc(b1-3)Gal(b1-4)GlcNAc(b1-3)Gal(b1-4)GlcNAc(b1-2)Man(a1-6)]Man(b1-4)GlcNAc(b1-4)[Fuc(a1-6)]GlcNAc
# How it was run: as §1
# [15] = target: Gal(b1-4)GlcNAc(b1-3)Gal(b1-4)GlcNAc(b1-3)Gal(b1-4)GlcNAc(b1-2)[Gal(b1-4)GlcNAc(b1-3)Gal(b1-4)GlcNAc(b1-3)Gal(b1-4)GlcNAc(b1-6)]Man(a1-6)[Gal(b1-4)GlcNAc(b1-3)Gal(b1-4)GlcNAc(b1-3)Gal(b1-4)GlcNAc(b1-2)Man(a1-3)]Man(b1-4)GlcNAc(b1-4)[Fuc(a1-6)]GlcNAc
# How it was run: as §1
# [16] = target: Gal(b1-4)GlcNAc(b1-3)Gal(b1-4)GlcNAc(b1-3)Gal(b1-4)GlcNAc(b1-3)Gal(b1-4)GlcNAc(b1-2)Man(a1-3)[Gal(b1-4)GlcNAc(b1-3)Gal(b1-4)GlcNAc(b1-3)Gal(b1-4)GlcNAc(b1-3)Gal(b1-4)GlcNAc(b1-2)Man(a1-6)]Man(b1-4)GlcNAc(b1-4)GlcNAc
# How it was run: as §1
# [17] = target: Gal(b1-4)GlcNAc(b1-3)Gal(b1-4)GlcNAc(b1-3)Gal(b1-4)GlcNAc(b1-3)Gal(b1-4)GlcNAc(b1-2)Man(a1-3)[Gal(b1-4)GlcNAc(b1-3)Gal(b1-4)GlcNAc(b1-3)Gal(b1-4)GlcNAc(b1-3)Gal(b1-4)GlcNAc(b1-2)Man(a1-6)]Man(b1-4)GlcNAc(b1-4)[Fuc(a1-6)]GlcNAc
# How it was run: as §1
# [18] = target: Gal(b1-4)GlcNAc(b1-3)Gal(b1-4)GlcNAc(b1-3)Gal(b1-4)GlcNAc(b1-3)Gal(b1-4)GlcNAc(b1-2)[Gal(b1-4)GlcNAc(b1-3)Gal(b1-4)GlcNAc(b1-3)Gal(b1-4)GlcNAc(b1-3)Gal(b1-4)GlcNAc(b1-6)]Man(a1-6)[Gal(b1-4)GlcNAc(b1-3)Gal(b1-4)GlcNAc(b1-3)Gal(b1-4)GlcNAc(b1-3)Gal(b1-4)GlcNAc(b1-2)Man(a1-3)]Man(b1-4)GlcNAc(b1-4)[Fuc(a1-6)]GlcNAc
# How it was run: as §1
# [19] = target: Gal(b1-4)GlcNAc(b1-3)Gal(b1-4)GlcNAc(b1-3)Gal(b1-4)GlcNAc(b1-3)Gal(b1-4)GlcNAc(b1-3)Gal(b1-4)GlcNAc(b1-2)Man(a1-3)[Gal(b1-4)GlcNAc(b1-3)Gal(b1-4)GlcNAc(b1-3)Gal(b1-4)GlcNAc(b1-3)Gal(b1-4)GlcNAc(b1-3)Gal(b1-4)GlcNAc(b1-2)Man(a1-6)]Man(b1-4)GlcNAc(b1-4)GlcNAc
# How it was run: as §1
# [20] = target: Gal(b1-4)GlcNAc(b1-3)Gal(b1-4)GlcNAc(b1-3)Gal(b1-4)GlcNAc(b1-3)Gal(b1-4)GlcNAc(b1-3)Gal(b1-4)GlcNAc(b1-2)Man(a1-3)[Gal(b1-4)GlcNAc(b1-3)Gal(b1-4)GlcNAc(b1-3)Gal(b1-4)GlcNAc(b1-3)Gal(b1-4)GlcNAc(b1-3)Gal(b1-4)GlcNAc(b1-2)Man(a1-6)]Man(b1-4)GlcNAc(b1-4)[Fuc(a1-6)]GlcNAc
# How it was run: as §1
# [21] = target: Gal(b1-4)GlcNAc(b1-3)Gal(b1-4)GlcNAc(b1-3)Gal(b1-4)GlcNAc(b1-3)Gal(b1-4)GlcNAc(b1-3)Gal(b1-4)GlcNAc(b1-2)[Gal(b1-4)GlcNAc(b1-3)Gal(b1-4)GlcNAc(b1-3)Gal(b1-4)GlcNAc(b1-3)Gal(b1-4)GlcNAc(b1-3)Gal(b1-4)GlcNAc(b1-6)]Man(a1-6)[Gal(b1-4)GlcNAc(b1-3)Gal(b1-4)GlcNAc(b1-3)Gal(b1-4)GlcNAc(b1-3)Gal(b1-4)GlcNAc(b1-3)Gal(b1-4)GlcNAc(b1-2)Man(a1-3)]Man(b1-4)GlcNAc(b1-4)[Fuc(a1-6)]GlcNAc
# How it was run: as §1
# [22] = target: Gal(b1-4)GlcNAc(b1-3)Gal(b1-4)GlcNAc(b1-3)Gal(b1-4)GlcNAc(b1-3)Gal(b1-4)GlcNAc(b1-3)Gal(b1-4)GlcNAc(b1-3)Gal(b1-4)GlcNAc(b1-2)Man(a1-3)[Gal(b1-4)GlcNAc(b1-3)Gal(b1-4)GlcNAc(b1-3)Gal(b1-4)GlcNAc(b1-3)Gal(b1-4)GlcNAc(b1-3)Gal(b1-4)GlcNAc(b1-3)Gal(b1-4)GlcNAc(b1-2)Man(a1-6)]Man(b1-4)GlcNAc(b1-4)GlcNAc
# How it was run: as §1
# [23] = target: Gal(b1-4)GlcNAc(b1-3)Gal(b1-4)GlcNAc(b1-3)GalNAc
# How it was run: as §1
binder,measurement,setting,value
B1,glycan array binding signal (z-score),[1],-0.378
same,glycan array binding signal (z-score),[2],-0.12
same,glycan array binding signal (z-score),[3],-0.36
same,glycan array binding signal (z-score),[4],-0.399
same,glycan array binding signal (z-score),[5],-0.444
same,glycan array binding signal (z-score),[6],-0.356
same,glycan array binding signal (z-score),[7],-0.186
same,glycan array binding signal (z-score),[8],-0.311
same,glycan array binding signal (z-score),[9],-0.278
same,glycan array binding signal (z-score),[10],-0.102
same,glycan array binding signal (z-score),[11],0.152
same,glycan array binding signal (z-score),[12],-0.18
same,glycan array binding signal (z-score),[13],-0.207
same,glycan array binding signal (z-score),[14],-0.103
same,glycan array binding signal (z-score),[15],0.177
same,glycan array binding signal (z-score),[16],-0.056
same,glycan array binding signal (z-score),[17],-0.138
same,glycan array binding signal (z-score),[18],-0.033
same,glycan array binding signal (z-score),[19],-0.158
same,glycan array binding signal (z-score),[20],0.107
same,glycan array binding signal (z-score),[21],0.243
same,glycan array binding signal (z-score),[22],0.173
same,glycan array binding signal (z-score),[23],-0.376
